Over roughly 3,600 compounds, “viability index relative to DMSO control” has its median near 0.81; the lowest 2% begin near 0.13. This is one part of the list.
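Also: 384-well serum-free SaLSSA: MitoTracker Red CMXRos staining with saponin lysis, high-content imaging, treated-well particle count divided by plate-mean count of DMSO wells.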

The subject of the test is Plasmodium falciparum NF54 stage V gametocytes. In words: viability index relative to DMSO control (fraction); higher = less gametocyte killing. To be noted: 1.25 µM, incubation time: 72 h.
`Cc1cccc(-n2ccnc2SCC(=O)Nc2cc(C(F)(F)F)ccc2Cl)c1` had a viability index of 1.01.

Compound `CC1=CC(=C(C#N)c2nc3ccccc3s2)C=C(C)N1c1ccc2c(c1)OCO2` returned a viability index of 1.02.

For the compound `CCOC(=O)c1c(NC(=O)c2cccnc2)sc(C)c1CC`, the viability index turned out to be 0.747.

Regarding `COc1cccc(N2C(=O)/C(=C/c3cccnc3)SC2=S)c1`, the viability index turned out to be 0.81.

In turn, `COc1ccc(C2=NN(C(=O)CCC(=O)O)C(c3ccccc3F)C2)cc1` (stereo not given) yielded a viability index of 1.35.

For `CCc1ccc(NC(=O)COC(=O)c2cccs2)cc1`, the viability index was determined as 0.728.

The compound `CCN1C(C(=O)c2ccccc2)=C(Nc2c(C)n(C)n(-c3ccccc3)c2=O)c2ccccc2S1(=O)=O` gave a viability index of 0.816.

The compound `CC(C)c1nc(N2CCN(C(=S)NCc3ccccc3)CC2)c(C#N)c2c1COC(C)(C)C2` showed a viability index of 0.0888.

As for `CCOC(=O)C1=C(C)NC(=Cc2cc(C)n(-c3ccccc3C(F)(F)F)c2C)C1=O`, the viability index is 0.498.

Compound `CCCCn1c(=N)n(CC(O)c2ccc(Cl)c(Cl)c2)c2ccccc21` (stereo not given) returned a viability index of 0.411.

Take `N=c1n(Cc2ccccc2)c2ccccc2n1CC(O)c1ccc(Cl)cc1` (stereo not given): the viability index worked out at 0.657.

In turn, `COc1ccc(-c2ccc3c(N)c(C(=O)NCCc4ccccc4)sc3n2)cc1OC` registered a viability index of 0.638.

Take `CC12CN(Cc3ccccc3)CC(C)(CN(Cc3cccc(Br)c3)C1)C2`: the viability index was found to be 0.996.

Regarding `Cc1ccc(C)c(NC2=C(c3ccc(C(F)(F)F)cc3)C(=O)c3ccccc32)c1`, the viability index is 0.904.

`CC(C)(C)c1nn(-c2ccc(Cl)cc2)c2[nH]c(=O)c(CNCc3ccc(Cl)cc3)cc12` registered a viability index of 0.391.

`COc1ccc(CNC(=O)C(Cc2c[nH]c3ccccc23)N2CCS(=O)(=O)CC2)cc1` (stereo not given): the viability index is 1.04.

On to `Cn1c(=NC(=O)c2ccc(S(=O)(=O)N3CCCCC3)cc2)sc2cc(Cl)ccc21`, for which the viability index is 0.694.

In turn, `COc1cccc(-c2ccc(O)c(CNCC3CCCCC3)c2)n1` returned a viability index of 0.615.

`O=C(NC(c1ccccc1)c1ccc2cccnc2c1O)c1ccccc1` (stereo not given) returned a viability index of 0.714.

In turn, `COc1ccc(C)cc1-n1c(-c2ccc(Cl)cc2)cc2c1CC(C)(C)CC2=O` gave a viability index of 0.594.

The compound `CC(=O)N(C1=C(N(C)C)C(=O)c2ccccc2C1=O)c1cccc(F)c1` returned a viability index of 0.0612.

With `Oc1c(CN2CCCCC2)ccc2ccccc12`, the viability index is 0.487.

On to `CCOc1ccccc1-n1c(N)c(C(=O)Nc2ccc(F)cc2)sc1=S`, for which the viability index is 1.17.

For the compound `CC1=C(CC(=O)c2ccc(Cl)cc2)C(=O)c2ccccc2C1=O`, the viability index was determined as 0.834.

On to `O=c1[nH]nc(SCc2c(F)cccc2[N+](=O)[O-])c(=O)[nH]1`, for which the viability index turned out to be 0.766.

Regarding `C[n+]1c2n(c3ccccc31)N=C(c1ccccc1)CS2`, the viability index is 0.781.

`CCC(C)(C)C1CCc2sc3ncnc(NN=Cc4c(Cl)cccc4Cl)c3c2C1` (stereo not given) displayed a viability index of 0.336.

In turn, `c1ccc(Nc2ccnc(Nc3ccccc3)n2)cc1` yielded a viability index of 0.807.

With `N#Cc1c(-c2ccccc2)cc(N2CCN(C3CCCCC3)CC2)n2c1nc1ccccc12`, the viability index was determined as 0.822.

The compound `CC(=O)Nc1cccc(NC(=O)CSc2ccc3nnc(-c4ccc(F)cc4)n3n2)c1` registered a viability index of 0.702.

In turn, `CCCN(CCC)S(=O)(=O)c1ccc(C(=O)Nc2ccccc2C(=O)Oc2ccc3c(c2)c(C(=O)OCC)c(C)n3-c2ccccc2)cc1` displayed a viability index of 0.579.

`COc1ccc2c(C)nc(NC(=N)N)nc2c1` showed a viability index of 0.864.

As to `CC[n+]1c(C=C2Sc3ccc(OC)cc3N2C)ccc2cc(C)ccc21`, the viability index is 0.325.

`Cc1cc(C)nc(NC(=N)Nc2cccc(O)c2)n1`: the viability index worked out at 0.656.

`COC(=O)C1=C(C)NC2=C(C(=O)CC(c3ccc(OC)c(OC)c3)C2)C1c1ccccc1F` (stereo not given) registered a viability index of 0.923.

Compound `COC(=O)C1=C(C)NC2=C(C(=O)CC(c3ccc(OC)c(OC)c3)C2)C1c1cccc(Cl)c1Cl` (stereo not given) came in with a viability index of 1.07.

As for `CN(C)c1ccc(C=CC=Cc2cccc[n+]2C)cc1`, the viability index was 0.855.

In turn, `CN(C)c1cc[n+](Cc2ccccc2)cc1` displayed a viability index of 0.959.

For `O=C(c1cccc(F)c1)N1CCN(Cc2ccncc2)CC1`, the viability index turned out to be 0.95.

As to `CCOC(=O)C(=O)N1c2ccc(OC)cc2-c2c(ssc2=S)C1(C)C`, the viability index was determined as 0.358.

Consider `OC(CNCc1ccccc1)Cn1c2ccc(Br)cc2c2cc(Br)ccc21` (stereo not given), for which the viability index came out at 0.498.

For `COc1cccc(-c2ccc(O)c(CNCC3CC4C=CC3C43CC3)c2)n1` (stereo not given), the viability index came out at 0.365.

For `O=S(=O)(c1ccc(Cl)cc1)N1CCN(C(=S)NCC2CCCO2)CC1` (stereo not given), the viability index stood at 0.824.

Regarding `Cn1c(-c2ccc([N+](=O)[O-])cc2)[n+](C)c2ccccc21`, the viability index was found to be 0.736.

With `COc1ccc(C2CC(=O)C3=C(C2)NC(C)=C(C(=O)OC(C)C)C3c2ccc([N+](=O)[O-])cc2)cc1OC` (stereo not given), the viability index was found to be 0.479.

In the case of `Cc1cc(C)c(S(=O)(=O)N2CCCC2CNC(=O)c2cccc([N+](=O)[O-])c2)c(C)c1` (stereo not given), the viability index was 1.1.

Regarding `Cc1oc2c(c1C(=O)NC1CCS(=O)(=O)C1)C(=O)c1ccccc1C2=O` (stereo not given), the viability index stood at 0.0502.

In the case of `Cc1cc(C)nc(SCc2cc(=O)c(OC(=O)c3ccccc3Br)co2)n1`, the viability index came to 0.686.

Take `CCCCNC(=S)N(Cc1cccs1)Cc1cc2cc(C)ccc2[nH]c1=O`: the viability index stood at 0.837.

The compound `O=[N+]([O-])c1ccc(NN=Cc2cccs2)c(S(=O)(=O)N2CCCCCC2)c1` yielded a viability index of 0.869.

For `CCCCCC(=O)N1c2ccccc2NC2=C(C(=O)CC(c3ccc(OC)c(OC)c3)C2)C1c1ccc(C(F)(F)F)cc1` (stereo not given), the viability index is 0.475.

`O=C1Nc2ccccc2C1=Nc1ccccc1NS(=O)(=O)c1ccc2ccccc2c1` yielded a viability index of 0.804.

`CC1CCN(S(=O)(=O)c2ccc(C(=O)Nc3sc4c(c3C(N)=O)CCN(C)C4)cc2)CC1`: the viability index worked out at 0.995.

Take `CCCN1CCc2c(sc3nc(SCC(=O)OC)nc(N)c23)C1`: the viability index is 0.937.

The compound `CC(NS(=O)(=O)c1ccccc1)C(c1cccs1)N1CCN(c2ccccc2F)CC1` (stereo not given) had a viability index of 0.909.

As to `COc1ccc(S(=O)(=O)Nc2ccc(N3CCC(Cc4ccccc4)CC3)c(C(=O)NC(C)C)c2)cc1`, the viability index came out at 0.565.

Consider `COc1ccc(N)cc1NC(=O)c1ccc(Cl)cc1Cl`, for which the viability index turned out to be 0.875.

Turning to `CCCCCCCCN[C@H](C)[C@@H](O)c1ccc(SC(C)C)cc1`, the viability index was 0.841.

As for `C=CCc1c(C)nc2ccc(Br)cc2c1O`, the viability index came out at 0.536.

For `CC(C)(C)CC(C)(C)c1ccc(OCC(=O)NN=C2C(=O)Nc3ccccc32)c([N+](=O)[O-])c1`, the viability index came to 1.

Compound `CCOc1ccc2[nH]c(=O)c(CN(CCN(CC)CC)C(=S)NCCCN(CC)CC)cc2c1` gave a viability index of 0.534.

The compound `Cc1sc2nc3c4ccccc4c(NCCCN(C)C)nn3c(=O)c2c1C` registered a viability index of 0.711.

With `CCSc1ncnc2scc(-c3ccccc3)c12`, the viability index was found to be 0.922.

Regarding `Cc1ccccc1OCCSc1nc2ccc(NC(=O)c3ccccc3)cc2s1`, the viability index stood at 0.843.

In turn, `COc1ccc(NC(=O)C=Cc2ccccc2Cl)cc1` displayed a viability index of 0.525.

In turn, `Cc1nnc(Nc2ccc(F)cc2)c2ccccc12` showed a viability index of 0.923.

`O=C(CN1CCN(S(=O)(=O)c2cccc([N+](=O)[O-])c2)CC1)Nc1ccc(OCc2ccccc2)cc1` displayed a viability index of 1.03.

`CCn1c(SCC(=O)NCCc2ccccc2)nc2sc3c(c2c1=O)CCN(C)C3` had a viability index of 0.857.

Regarding `O=C(C=Cc1ccc(Br)cc1)NC(=O)c1ccccc1O`, the viability index worked out at 0.914.

As for `COc1ccc(C=C2SC(=Nc3ccc(F)cc3)NC2=O)c(OC)c1`, the viability index is 0.38.

In turn, `CN(C)c1cc[n+](CC(=O)c2ccc(Cl)cc2)cc1` showed a viability index of 0.761.

`CC(=Cc1sc2ccc3occc3c2[n+]1CCO)C=C1Sc2ccc3ccoc3c2N1CCO`: the viability index amounted to 0.577.

`Cc1c(-c2ccccc2)c2ccccc2n1CCc1ccc(C)[n+](C)c1` gave a viability index of 0.901.

In turn, `O=C(Nc1ccc(N2CCCCC2)cc1)c1cc2ccccc2o1` returned a viability index of 0.902.

Consider `Clc1ccc(CCNC2CCN(CCc3ccccc3)CC2)cc1`, for which the viability index amounted to 0.669.

As to `O=C1CN(C(=O)CCC2CCCCC2)C(c2ccc(F)cc2)c2cc(F)ccc2N1` (stereo not given), the viability index came to 0.968.

`COc1ccc(C(=O)C[n+]2cc(-c3ccc(OC)cc3)n3c2CCC3)cc1` registered a viability index of 1.19.

Compound `COCCN(Cc1cc2ccc(F)cc2nc1N1CCCCCC1)C(=O)c1ccoc1` returned a viability index of 1.28.

`CCc1ccc2[nH]c(=O)c(CN(CCN(CC)CC)C(=S)NCCCN(C)C)cc2c1` had a viability index of 0.935.

`COC(=O)c1c(N)n(-c2ccccc2OC)c2nc3ccccc3nc12` showed a viability index of 0.808.

In turn, `CCOc1ccc(C(=O)C(CCC(C[N+]2(C)CCCCCC2)C(=O)c2ccc(OCC)cc2)C[N+]2(C)CCCCCC2)cc1` (stereo not given) returned a viability index of 0.837.

For `COc1ccc(C=Cc2ccc3ccccc3[n+]2C)cc1`, the viability index was found to be 0.456.

Consider `CC1=CC(=C(C#N)c2nc3ccccc3s2)C=C(C)N1CC1CCCO1` (stereo not given), for which the viability index is 0.798.

`COc1ccc(Nc2nc(NN=Cc3cccc([N+](=O)[O-])c3OC)nc(Nc3ccc([N+](=O)[O-])cc3)n2)cc1` returned a viability index of 0.469.

For `Cc1ccc(NC(=O)C2CC3c4ccccc4C2c2ccccc23)cc1` (stereo not given), the viability index came out at 1.02.

`COc1cccc(CNC(=O)Cn2ncc3c(=O)oc4ccc(C)cc4c32)c1`: the viability index amounted to 0.843.

Turning to `O=[N+]([O-])c1ccc2nc(NC3CCCCC3)c(NC3CCCCC3)nc2c1`, the viability index was found to be 0.86.

`Oc1c(C(Nc2ccccn2)c2ccc(Br)cc2)ccc2cccnc12` (stereo not given) showed a viability index of 1.1.

Consider `O=C(Nc1ccc(-c2nc3ccccc3[nH]2)cc1)c1cccc(C(=O)Nc2ccc(-c3nc4ccccc4[nH]3)cc2)n1`, for which the viability index stood at 0.0331.

In turn, `O=C(O)C=CC(=O)N(C1CCCCC1)C1CCCCC1` yielded a viability index of 0.982.

For the origin of these results see the supplement of paper PMC4723716.
